Source: the supplement of paper PMC3334620
Whole data set: some 33,000 sequences, median “E-score (-0.5 to 0.5)” near -0.041, cut for the highest 2% near 0.37. The list shows a part of the results.

Molecular target: T1, Ecm22 (UniProt Q05958)
T1 sequence: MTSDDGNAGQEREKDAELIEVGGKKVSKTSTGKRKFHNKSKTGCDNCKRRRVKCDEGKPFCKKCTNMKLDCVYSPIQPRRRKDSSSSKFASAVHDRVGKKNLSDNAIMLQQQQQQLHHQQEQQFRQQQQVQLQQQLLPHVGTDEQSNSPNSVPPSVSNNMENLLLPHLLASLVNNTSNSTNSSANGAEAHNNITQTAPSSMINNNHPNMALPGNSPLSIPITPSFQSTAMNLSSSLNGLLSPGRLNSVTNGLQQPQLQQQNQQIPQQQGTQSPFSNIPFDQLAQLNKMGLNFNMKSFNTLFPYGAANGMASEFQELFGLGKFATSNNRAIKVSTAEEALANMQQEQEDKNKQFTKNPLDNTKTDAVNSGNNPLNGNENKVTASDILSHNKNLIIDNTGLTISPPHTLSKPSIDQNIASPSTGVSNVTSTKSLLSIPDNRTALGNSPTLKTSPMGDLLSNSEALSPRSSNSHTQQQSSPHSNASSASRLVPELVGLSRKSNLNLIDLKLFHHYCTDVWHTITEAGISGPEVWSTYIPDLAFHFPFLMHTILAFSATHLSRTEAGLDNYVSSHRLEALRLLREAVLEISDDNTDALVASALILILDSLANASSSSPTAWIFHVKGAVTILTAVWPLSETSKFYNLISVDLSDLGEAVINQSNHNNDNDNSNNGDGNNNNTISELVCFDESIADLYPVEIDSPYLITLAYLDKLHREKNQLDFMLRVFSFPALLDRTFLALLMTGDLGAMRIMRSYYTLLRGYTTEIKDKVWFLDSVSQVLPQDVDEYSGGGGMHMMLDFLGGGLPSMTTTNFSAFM
Test: PBM E-score (8-mer binding enrichment) (E-score (-0.5 to 0.5)); higher = stronger / more preferred TF binding; most listed sequences are background and not binding sites
Settings: protein concentration: 200 nM; construct: GST-full length
Outline: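 For each ungapped eight-base word taken together with its reverse complement, the Universal PBM Analysis Suite assigned an E-score. Binding data came from GST-tagged yeast transcription factors, applied at about 100-200 nM, on universal all-10-mer Agilent arrays made double-stranded by primer extension. Fluorescent anti-GST marked bound protein, and scans were normalised with masliner.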

Sequence	PBM E-score
TAAGGCAA	-0.0878
ATACCTTA	0.0825
TCAGGCCA	-0.198
AGTGTTAG	0.00522
AGTCATTG	-0.211
CCACGGCA	-0.0744
GGCTGTCA	-0.219
ACAGGGAG	-0.238
AGTGCAGG	-0.153
CCGAACTC	0.0559
AGATACCA	-0.0445
AGCGGAAA	-0.0681
ACTCTCAT	0.00813
CCATGTAA	-0.226
ACCAATTG	-0.151
ATCTGCGG	-0.00985
CTCACAGC	-0.268
CACCGAAA	0.116
AAATCCTA	-0.0798
ATCCCCAG	-0.209
ACGCCTCC	-0.122
AGAACCGG	-0.102
AGCCGTTG	-0.0268
AGGGGGAG	-0.199
ACTGAAGA	-0.0981

Sequence	PBM E-score
ATCTGAAT	-0.0605
CCGTTGCC	0.0255
CCCGGCGC	-0.15
AGAGATTA	0.0172
ACCCGACG	0.167
CATAGGAG	-0.246
GCGCCTAA	-0.0362
ACTAACCA	-0.0312
CCCGTGGC	-0.202
GCCACCTA	-0.123
AATCCAAA	-0.0246
GTGCAGCA	-0.0544
CATGGGCA	-0.0655
AATTCACG	0.0776
GCTGTTCA	-0.0782
GAATACAC	0.0154
ACAGAATA	0.143
GCAAGTGA	-0.135
TAGGACAA	-0.213
AGGTTACA	-0.149
ATTAGCCA	-0.00456
GTCTATCA	-0.0593
CCGGGGAC	-0.169
ACAGGAAA	0.0919
ACCTCGAA	0.0834

Sequence	PBM E-score
ACATGATA	0.082
AAGGTGTG	-0.266
GGGCTTAC	-0.0954
CCCCTCAA	-0.166
ACAGGGCT	-0.24
CTACGTCC	-0.0539
GTACCCCA	0.0319
ACATTACC	-0.265
ACGTAGCC	0.0335
ATTTAAGA	-0.124
AACCACTC	0.0667
AGTAACCA	-0.125
CGAGCGAC	0.264
AAGCATCT	-0.0318
CCCTATCA	-0.344
ACCTATGA	-0.146
ACAATTGT	0.00386
AGAGCTAT	-0.199
ACCGGAAG	0.139
CCTACTGC	-0.323
CATCCCTA	-0.231
GTCTACAC	0.0872
AACTAACA	0.217
AATATCCG	0.219
GTCAGTAA	0.0146

Sequence	PBM E-score
ACGAGAAT	0.385
CAGTATTA	0.0438
AATTGACC	0.164
CTATCCCC	-0.209
CGCACTAG	-0.0642
CGCTCTAG	-0.132
AGGTTCCC	-0.0502
CAGGACGA	-0.283
AAACTGCA	-0.123
CAACCTAC	-0.23
AAGTAGGG	-0.178
AACTTTTC	-0.0753
AGGGCCGG	-0.316
AACTGGGC	-0.0689
AACATCCC	-0.151
GGGACGCA	-0.319
TGCTGGAA	-0.0991
GGCCGAGA	0.0114
ACGCCAAC	0.0646
ACCTTGCC	-0.195
GTTACTGA	0.133
CAACACAG	-0.098
GGCGTTGA	-0.126
AGAACACG	-0.00539
AACGCGTA	0.187

Sequence	PBM E-score
CGATTTAG	-0.00961
GGCACTAC	-0.0802
AAGTCGGT	0.0368
GTTCGTTA	0.356
GCGCTAAA	-0.0453
CGGTTGAG	0.167
GAGTCGCC	-0.0892
GGTACTGA	-0.0769
ATGTGCGG	-0.121
ACTATTCC	-0.104
CGAGTAAA	0.135
GGGTAACC	-0.079
AAATATTC	0.0894
CCCTTGGC	-0.392
GTCTGGGA	0.0462
AAATAGAA	0.0389
CGCGTTTC	0.0578
GATATTAC	0.244
AGCGGTGC	0.0264
CTAGGCTA	-0.33
AGCGGCAC	-0.14
AATCGTAT	0.427
CATGCAGA	-0.112
AGGTGTAG	-0.171
GTGATGAA	-0.0964

Sequence	PBM E-score
GACCGGCA	-0.122
ACCTACAC	-0.235
TCCCAAGA	-0.133
GTAATGCA	-0.171
CGAACGGA	0.24
CACATGAC	-0.187
AATAATGT	-0.108
AAAAGCTG	-0.0786
ACAAACAT	-0.0482
GTAACGCA	0.102
CCAGAGTC	-0.149
ATTCAGTA	0.0834
ACACGGGT	-0.0477
CCAGCTAA	-0.101
ATGTCTTA	-0.0321
GAGTACAA	0.0511
ATAGTGAA	-0.118
CGGACAAC	0.12
CCCGAGCA	0.093
CCAAGTGC	-0.121
GACCCGGA	-0.17
CATACCCG	-0.0365
GACATGGC	-0.0518
GGAATCAA	-0.114
ACACGCCC	-0.102

Sequence	PBM E-score
TGAGTGCA	-0.0807
AAGAAGGA	-0.241
GAGTCAAC	-0.0861
AAGGATAT	-0.0788
AATTTTTA	0.0432
AACACCCG	0.0252
AATTAGGA	-0.0287
CCCGCAAG	-0.192
ACACCGCA	-0.0151
ATAAGTAC	0.161
ACAGAGGC	0.112
CCAAGGCG	-0.0227
ATTAAGGG	-0.291
CGTTTTTC	0.107
CCGCAGAC	-0.069
GACACCGC	0.0157
ACTAAATC	-0.025
AAAGATGA	-0.123
CAGTATAG	0.0643
CACACGGC	-0.0467
AAGATGAC	-0.202
CAATCACC	-0.00125
GGAAGTGA	0.0669
AGATTGAG	-0.076
CAAAACGC	-0.102

Sequence	PBM E-score
CGCGCGCC	0.119
CGTGTTTA	0.118
CGCGGACA	-0.0878
AACGGGGA	0.29
GCCAAGGA	-0.213
CGCTTTAC	0.229
GCCTGCGA	-0.237
GCAATTGA	-0.101
AATGAACT	0.0961
TCATCCAA	-0.00678
CTGTTAGC	-0.0802
GCGGGAGA	-0.0617
CAAACGAC	0.442
AAAGCGTG	-0.0715
AGGGCGAA	-0.15
CCAGCCCA	-0.293
CCTGAGGC	-0.211
GGGAAACA	0.00879
CCGAACGA	0.357
AGCCCGCG	0.0591
AATGTATG	-0.0417
ATTTTTTA	0.121
GATCGCCA	-0.06
TGTCGGAA	0.105
CATCCATG	-0.12

Sequence	PBM E-score
GACCGGAA	0.0512
CGGAATAC	0.241
ACACTCTA	0.0288
CATCCTAG	-0.125
AGGAAGAG	-0.186
AGGTCTCA	-0.23
ATCGTACA	0.465
ACCCGTCT	-0.0476
TACTAAAA	0.213
TCCTCACA	-0.197
ACGGAGAG	0.125
GAGAGTGA	0.00324
AAATGTCA	-0.107
GACACCTC	0.148
CACTCTTA	-0.121
ACTCCAGA	-0.0461
GCCCGGGC	-0.181
GCGTGTCA	-0.17
CTTGAAAC	0.0867
ACTAGTAG	-0.0744
AGAACGAT	0.342
CTTCGACA	-0.0624
ATGCGCAC	-0.048
CTTAGAGC	-0.0805
AGCTTCCA	-0.206

Sequence	PBM E-score
ACAGAGGT	-0.125
AGCGATAA	0.132
GGGTGGTA	0.0605
CGTTGAAC	0.207
ACAGGCCT	-0.314
CGTAACAC	0.289
GCTTCCGA	0.0694
CTCTGTAA	0.0371
ATATGGTG	-0.0638
CCAACTTC	-0.0473
GACCAGTA	-0.0962
ACCCCCAG	-0.109
GTGAATTA	-0.199
CCATCCAA	-0.19
CATTCGGA	0.226
CGGGGTAA	-0.0415
ACAATTTC	0.086
ATCTGCCG	0.0109
CCACACGC	0.0055
GACCACGC	0.0412
TCTCGCCA	0.141
CGTGCTAC	-0.188
ACCTGGTC	0.00669
CAAGTAAA	0.0478
CGTTGTTC	0.205

Sequence	PBM E-score
CTGGTAGA	-0.228
GCTTGGAA	0.0473
AGGTAATG	-0.111
AATTTAAA	-0.00236
ACGACCAA	0.371
CTCGTGAC	0.166
CCTGGCCG	-0.124
ACACTTCG	0.0297
GGACCTAC	0.111
CACAGAGG	-0.288
CCTATGCA	-0.252
AAATTTCT	0.026
GCTAGGAA	-0.201
AGTGCTCG	0.271
CCTACGCG	0.0452
CCAACAGA	-0.0688
CAGAAAAA	-0.0648
CACCTACC	-0.245
ACACCGCT	-0.0892
AGCGGGGA	-0.118
CGGGTTTA	0.086
GGGCTAAA	-0.0448
ATCTCGAG	-0.0735
CATTCTAG	-0.363
ACACGTAC	0.281

Sequence	PBM E-score
AGAGGCGA	-0.00468
CAACGGTC	0.0501
AGAGGCAA	-0.203
GGAGGCCA	-0.249
GAGCAATC	-0.00427
ACCTTCTA	-0.109
GCCCCATA	-0.176
ATCACACC	-0.0607
CATGTGGA	-0.121
GGGCTCAC	-0.188
ACCAGGTC	-0.198
AGACGAAC	0.295
CTCTACAC	-0.0808
GCTCTGAA	-0.0872
ATCCGGGA	-0.0993
AGGATATC	-0.0716
AGTGTCCG	0.0467
ATAGTCAC	0.113
AAGGTCCC	-0.0975
ACGGTAAC	0.151
GCCACAAA	0.0966
ACGAATCT	0.297
CTTGATCA	-0.0854
CAGACCGA	0.14
CGATTCAA	0.086

Sequence	PBM E-score
CCTATGTA	0.0158
AGCAGGTA	-0.215
GTATAGAC	0.263
CGGCGCTA	-0.0667
ACCAAGGC	-0.171
CGCAAACG	0.348
CAAACCGG	-0.0909
GCAGATGA	-0.129
ATTAAATA	0.0128
CCTGCAAC	-0.104
ATACAGGC	-0.112
ATTATCAG	-0.181
AGATGTAC	0.0567
AGGGTAAC	0.00028
CGATGAGA	0.0548
CGCATAAG	0.136
AAGATACG	0.368
CATACTCC	-0.155
AGTTGCTG	-0.068
GCTGAAAC	-0.0362
AGACTCGC	0.0569
ACGGGGCA	0.114
AATGCTGG	-0.0144
GACAGCTA	-0.115
ATGAGTCG	0.129

Sequence	PBM E-score
AAACCAAG	0.0355
ATTCTGGG	-0.192
CCCGCGGA	-0.211
AATTGCTA	-0.0544
CTCCTCCC	-0.103
CCTTACGC	0.205
ACCCCCGT	-0.048
CATATTAC	-0.0537
AATTACTA	0.0182
CATTAAGA	-0.0826
GGGCTCTA	0.0124
ACATAAAG	-0.0723
AGCAGCCC	-0.182
TATGCAGA	0.0611
CGATACCG	0.05
AAGTAGGA	-0.18
ACAGGTTC	-0.0673
CCCATCGA	-0.0449
CGATATGA	0.038
